The whole screen tested about 390,000 compounds, of which about 930 (0.24%) were called active. The shares of active, inactive and inconclusive entries below differ from those in the screen. Calls come from the whole dose curve; as a rule, active = well fitted activation curve with a large enough effect; inconclusive = small, poorly fitted or top-dose-only effect; inactive = no such curve, though single readings can be large or run the other way. A potency beside an inconclusive call is a rough fit, not a confirmed value.
assay: qHTS for Suppressors of FUS Proteinopathy: Primary screen using FUS-linked yeast assay; note: nearly all actives have a fitted effect of over 55% in size;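 for growth rescue (activation): plate controls were DMSO vehicle for no effect and reference control for full effect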; settings: S. cerevisiae FUS-expressing, OD600, 24 h; Potency: growth rescue; growth rescue (activation): at 76.6 µM (top of the series)
Summary of the method: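 Restored growth of FUS-toxic S. cerevisiae, read as 600 nm absorbance after 24 h at 30C in galactose medium (starting OD 0.005). Controls CP55940 and DMSO.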
Potency is the fitted concentration of half-maximal effect; tags give direction and shape of the fitted curve.

| Compound | growth rescue (activation) | Potency |
| --- | --- | --- |
| Clc1ccc2sc(C3CCNCC3)nc2c1 | inactive: 17% |  |
| COc1cc(/C=C/C(=O)c2c(O)n(CCc3ccccc3)c(=O)[nH]c2=O)ccc1O |  | inconclusive: 11.2 µM [activator, partial curve] |
| COc1ccc(C(=O)Nc2ccc(Cl)cc2C(=O)c2ccccc2)c(OC)c1 |  | inconclusive: 22.4 µM [activator, partial curve, poor fit] |
| Cc1ccccc1CN1C(=O)CN=C(c2ccccc2)c2cc(Cl)ccc21 |  | inconclusive: 28.2 µM [activator, single point] |
| c1coc(CN2Cc3ccccc3-n3nncc3C2)c1 | inactive: -18.4% |  |
| COC(=O)C1=C(c2ccc(C(C)=O)cc2)C[C@@H]2CC[C@H]1N2C(=O)NCc1ccc(C(F)(F)F)cc1 |  | inconclusive: 25.1 µM [activator, partial curve] |
| CCOC(=O)[C@]12Cc3ccc(C)cc3[C@H]1N(C1CCCCC1)C(=O)c1cc(OC)ccc12 |  | inconclusive: 14.1 µM [activator, partial curve] |
| CCC(=NCCCn1ccnc1)c1c(O)n(-c2ccccc2)c(=O)[nH]c1=O | inactive: -3.97% |  |
| COC(=O)C1=C(c2cccc(OCc3ccccc3)c2)C[C@@H]2CC[C@H]1N2C(=O)NCc1ccc(Cl)cc1 |  | inconclusive: 25.1 µM [activator, partial curve] |
| CCCCn1c(NS(=O)(=O)c2ccccc2)c(C(=O)OCC)c2nc3ccccc3nc21 |  | inconclusive: 28.2 µM [activator, single point] |
| COC1C(OC(=O)c2ccc(C)[nH]2)C(O)C(Oc2ccc3c(O)c(NC(=O)c4ccc(O)c(CC=C(C)C)c4)c(=O)oc3c2Cl)OC1(C)C (configuration not stated) |  | inconclusive: 28.2 µM [activator, single point] |
| O=C(CCc1ccccc1)N1Cc2cc(-c3ccccc3)ccc2-n2nncc2C1 |  | inconclusive: 22.4 µM [activator, single point] |
| O=C1/C(=C/c2cc([N+](=O)[O-])ccc2Cl)N2CCC1CC2 | inactive: 11.1% |  |
| COC(=O)C1=C(c2ccccc2OCc2ccccc2)C[C@@H]2CC[C@H]1N2C(=O)NCc1ccccc1 | inactive: 38.6% |  |
| COC(=O)C1=C(c2ccc(OC(F)(F)F)cc2)C[C@@H]2CC[C@H]1N2C(=O)NCCOc1ccc(OC)cc1 |  | inconclusive: 50.1 µM [activator, single point] |
| COC(=O)C1=C(c2cccc(OCc3ccccc3)c2)C[C@@H]2CC[C@H]1N2C(=O)NCc1ccc(OC)c(OC)c1 |  | inconclusive: 22.4 µM [activator, single point] |
| O=c1c(C=NCCN2CCNCC2)c(O)n(C2CCCCC2)c(=O)n1C1CCCCC1 |  | inconclusive: 50.1 µM [activator, partial curve, poor fit] |
| CC(C)(OOC1(c2ccccc2)NC(=O)c2ccccc21)c1ccccc1 (configuration not stated) |  | inconclusive: 22.4 µM [activator, partial curve, poor fit] |
| COC(=O)C1=C(c2cccc(OCc3ccccc3)c2)C[C@@H]2CC[C@H]1N2C(=O)NCCOc1ccccc1 |  | inconclusive: 7.94 µM [activator, partial curve] |

| Compound | growth rescue (activation) | Potency |
| --- | --- | --- |
| CC(C)(C)C(=O)N1Cc2cc(-c3ccccc3)ccc2-n2nncc2C1 | inactive: -13.2% |  |
| CC(C)(C)n1nnnc1C(c1cc2ccccc2o1)N1CCC2(CC1)C(=O)NCN2c1ccccc1 (configuration not stated) |  | inconclusive: 15.8 µM [activator, partial curve, poor fit] |
| CC(C)(C)n1nnnc1C(CCc1ccccc1)N1CCC2(CC1)C(=O)NCN2c1ccccc1 (configuration not stated) |  | inconclusive: 17.8 µM [activator, partial curve, poor fit] |
| Cc1ccc(N2C(=O)NC(=O)C3(Cc4ccccc4N4CCN(c5ccccc5)CC43)C2=O)cc1 (configuration not stated) |  | inconclusive: 35.5 µM [activator, single point] |
| C=CCNC(=O)c1c(N)n(Cc2ccco2)c2nc3ccccc3nc12 |  | inconclusive: 17.8 µM [activator, single point] |
| CCOC(=O)[C@]12Cc3cc(Cl)ccc3[C@H]1N(C1CCCCC1)C(=O)c1cc(OC)ccc12 |  | inconclusive: 50.1 µM [activator, single point] |
| O=C(CCc1ccccc1)N1Cc2cc(-c3cccc(F)c3)ccc2-n2nncc2C1 | inactive: 32.6% |  |
| Cc1ccc(C(O)(C(=O)OC(C)C)C(O)c2ccc(F)cc2)cc1 (configuration not stated) |  | inconclusive: 15.8 µM [activator, partial curve] |
| COC1CC2C=C(C)C=CC=CC(=O)NC(c3ccccc3)CC=CCCC(O)CC(=O)C2=C1O (configuration not stated) |  | inconclusive: 44.7 µM [activator, single point] |
| COC(=O)[C@@H]1[C@@H](C(=O)OC)C2(c3ccccc3-c3ccccc32)N(c2ccc(Cl)cc2)N1C#N |  | inconclusive: 14.1 µM [activator, partial curve, poor fit] |
| Cc1ccc(OCCn2cccc2/C=C2/C(=O)NC(=O)N(Cc3ccco3)C2=O)cc1 | inactive: 14.3% |  |
| COC(=O)C1=C(c2ccc(F)cc2OCc2ccccc2)C[C@@H]2CC[C@H]1N2C(=O)NCc1ccc(Br)cc1 |  | inconclusive: 28.2 µM [activator, single point] |
| CCOC(=O)c1c(N)n(Cc2ccccc2)c2nc3ccccc3nc12 |  | inconclusive: 12.6 µM [activator, partial curve, poor fit] |
| C[n+]1c(-c2ccccc2)cc(CCCCc2cc(-c3ccccc3)[n+](C)c(-c3ccccc3)c2)cc1-c1ccccc1 |  | inconclusive: 5.62 µM [activator, full curve, poor fit] |
| Cc1ccc2c(c1)C(Cc1nc3ccccc3c(=O)n1-c1ccc(Br)cc1)C(=O)N2 (configuration not stated) |  | inconclusive: 7.94 µM [activator, single point] |
| CCOC(=O)[C@]12Cc3cc(C)ccc3[C@H]1N(C1CCCCC1)C(=O)c1cc(OC)ccc12 |  | inconclusive: 14.1 µM [activator, partial curve] |
| COC(=O)C1=C(c2cccc(OCc3ccccc3)c2)C[C@@H]2CC[C@H]1N2C(=O)NNCc1ccccc1 |  | inconclusive: 12.6 µM [activator, partial curve] |
| Clc1ccc(C(c2ccc(Cl)cc2)n2cc[n+](CC(OCc3ccc(Cl)cc3Cl)c3ccc(Cl)cc3Cl)c2)cc1 (configuration not stated) |  | inconclusive: 25.1 µM [activator, single point] |
| COC(=O)C1=C(c2ccc(F)cc2OCc2ccccc2)C[C@@H]2CC[C@H]1N2C(=O)NCc1ccc(N(C)C)cc1 |  | inconclusive: 14.1 µM [activator, partial curve] |

| Compound | growth rescue (activation) | Potency |
| --- | --- | --- |
| CCOC(=O)CC[C@@H]1CC[C@]2(CCCN(Cc3ccccn3)C2)O1 | inactive: -7.3% |  |
| O=c1[nH]c2ccccc2n1C1CCN(C(c2ccccc2OC(F)(F)F)c2nnnn2-c2ccc3c(c2)OCCO3)CC1 (configuration not stated) |  | inconclusive: 8.91 µM [activator, partial curve] |
| CN(c1ccc(OCC(=O)N2CCN(C/C=C/c3ccccc3)CC2)cc1)S(=O)(=O)c1cccs1 |  | inconclusive: 25.1 µM [activator, partial curve, poor fit] |
| CCN1CCN(S(=O)(=O)c2ccc(Cl)c(C(=O)Nc3ccc(C(=O)N(CC)CC)cc3)c2)CC1 | inactive: -3.08% |  |
| O=C1N(CN2CCOCC2)c2ccccc2C1(O)c1c[nH]c2ccccc12 (configuration not stated) | inactive: 9.81% |  |
| O=C1CC(=O)N(Cc2ccccc2)C(=S)N1 |  | inconclusive: 44.7 µM [activator, partial curve, poor fit] |
| COC(=O)C1CN(C#N)N(c2ccc(Cl)cc2)C12c1ccccc1-c1ccccc12 (configuration not stated) | inactive: 35.4% |  |
| c1ccc2c(CNC3CCCCCC3)c[nH]c2c1 |  | inconclusive: 14.1 µM [activator, partial curve, poor fit] |
| COC(=O)C1=C(c2cccc(C#N)c2)C[C@@H]2CC[C@H]1N2C(=O)N1CCC(C)CC1 |  | inconclusive: 39.8 µM [activator, single point] |
| S=P(c1ccccc1)(c1ccccc1)c1cnc2ccccn12 |  | active: 22.4 µM |
| O=C1NCN(c2ccccc2)C12CCN(C(c1cc3ccccc3o1)c1nnnn1-c1ccc3c(c1)OCCO3)CC2 (configuration not stated) |  | inconclusive: 11.2 µM [activator, partial curve] |
| COC(=O)C1=C(c2cccc(OCc3ccccc3)c2)C[C@@H]2CC[C@H]1N2C(=O)NCCOc1ccccc1Cl |  | inconclusive: 10 µM [activator, partial curve, poor fit] |
| N[C@@H](Cc1c[nH]c2ccccc12)c1nnc(SCc2ccc(Cl)cc2)o1 |  | inconclusive: 50.1 µM [activator, partial curve, poor fit] |
| Cc1c(C(c2ccccc2Cl)c2c(O)c3ccccc3oc2=O)c(=O)n(-c2ccccc2)n1C (configuration not stated) | inactive: 17.9% |  |
| CCN1C(=O)N(CC)C(=O)C2(Cc3ccccc3N3CCN(c4ccccc4)CC32)C1=O (configuration not stated) |  | inconclusive: 50.1 µM [activator, single point] |
| O=C1NC(=O)[C@]2(Cc3ccccc3N3CCN(c4ccccc4)CC32)C(=O)N1Cc1ccccc1 (some centres not stated) |  | inconclusive: 31.6 µM [activator, single point] |
| C/C=C(\C)C(=O)N[C@@H](c1ccccc1)[C@@H](O)C(=O)O[C@H]1C[C@@]2(O)[C@@H](OC(=O)c3ccccc3)C3[C@](C)(C(=O)[C@H](OC(C)=O)C(=C1C)C2(C)C)[C@H](O)C[C@H]1OC[C@@]31OC(C)=O (some centres not stated) |  | inconclusive: 20 µM [activator, partial curve, poor fit] |
| C=CCn1c(O)c(C(C)=NCCC(c2ccccc2)c2ccccc2)c(=O)[nH]c1=O | inactive: -7.56% |  |
| O=[N+]([O-])c1cc(Cl)c(O)c(-[n+]2c(-c3ccccc3)cc(-c3ccccc3)cc2-c2ccccc2)c1 |  | inconclusive: 31.6 µM [activator, single point] |
